The record followed here is ChEMBL document CHEMBL1157539, “Thousands of chemical starting points for antimalarial lead identification” (Nature, 2010).

Whole data set: some 13,000 compounds, median “IFI” near 4, cut for the highest 2% near 17. Some of the results follow.

The nature of this assay: GSK_TCMDC: Inhibition Frequency Index (IFI). The number of non-kinase HTS assays where a compound showed > 50 % inhibition, expressed as a percentage of the number of such assays in which the compound was tested (-0 is zero). The assay is classed as functional.
Turning to `Nc1nc2c(c(=O)[nH]1)CN(S(=O)(=O)c1ccc(C(=O)N[C@@H](CCC(=O)O)C(=O)O)cc1)CC2`, the IFI is 1.43%.

`Cc1ccc(NC(=O)c2ccc3ncccc3c2)cc1OC1CCN(Cc2ccsc2)CC1`: the IFI stood at 3.08%.

In turn, `COc1ccc(NC(=O)c2ccc(-c3cccc(OCc4ccccc4)c3)cc2)cc1N1CCN(C)CC1` had an IFI of 9.93%.

On to `COC(=O)c1cccc(CNCc2cccc(-c3ccc(-c4nc5cccc(C)c5[nH]4)s3)c2)c1`, for which the IFI worked out at 5.88%.

The molecule `Cc1cc(N/N=C/c2ccccc2[N+](=O)[O-])c2ccc(F)cc2n1` registered an IFI of 0%.

`COc1ccc(NC(=O)c2ccc(OCCCCCCCOc3ccc(C(=O)Nc4ccc(OC)c(N5CCN(C)CC5)c4)cc3)cc2)cc1N1CCN(C)CC1`: the IFI came to 9.09%.

In the case of `CCOCCCNc1sc(S(=O)(=O)c2ccccc2)nc1S(=O)(=O)c1ccc(C)cc1`, the IFI worked out at 2.33%.

`CC(C)[C@H]1CC[C@H](C)C[C@@H]1OC(=O)N[C@@H](Cc1ccc(O)cc1)C(=O)NC1CCN(Cc2ccc(OCCCN(C)C)cc2)C1` (stereo not given in full) had an IFI of 4.29%.

`CCOc1ccc(Nc2ccc3nonc3c2S(=O)(=O)Nc2ccc(OCC)cc2)cc1` returned an IFI of 0.76%.

The molecule `O=C(Nc1ccccc1Br)N[C@@H]1CCN(c2ccnc3ccccc23)C1` displayed an IFI of 5.15%.

Molecule `CCOc1ccc(C(=O)N2CCOC(CCN3CCC(c4ccccc4)CC3)(c3ccc(Cl)c(Cl)c3)C2)cc1` (stereo not given) had an IFI of 7.38%.

In turn, `CC(C)CN1CCN(c2nc(C#N)c3c(c2C(=S)NC2CCCCC2)CC(C)(C)OC3)CC1` registered an IFI of 2.1%.

Turning to `Cc1ccccc1OCCCc1c(C)nc(N)nc1N`, the IFI was 0.77%.

Molecule `Cc1cc(-c2ccc3c(c2)CCN(CCC2CCC(NC(=O)/C=C/c4ccc(F)cc4)CC2)CC3)on1` (stereo not given) had an IFI of 6.47%.

Consider `O=C(Nc1ccc(Br)cc1)N(CCN1CCOCC1)CC(O)COc1ccc(Cl)c(F)c1` (stereo not given), for which the IFI was determined as 2.11%.

As for `N=C(N)NC(=O)Nc1cc(Cl)c(Cl)c(Cl)c1`, the IFI is 2.96%.

Molecule `Cc1cccn2c(=O)c3cc(C(=O)NC4CCCCC4)c(=N)n(CCCn4ccnc4)c3nc12` registered an IFI of -0%.

Molecule `COc1ccc(CN(C)CCCc2ccc(NC(=O)c3cccc4c(=O)c5cccc(F)c5[nH]c34)cc2)cc1OC` displayed an IFI of 12.9%.

On to `O=C(c1ccccc1F)N(Cc1ccc(Cl)cc1)c1ccccn1`, for which the IFI stood at 0%.

`NCCCNc1nc(Nc2cccc(C(N)=O)c2)c2c(=O)[nH]ccc2n1` had an IFI of -0%.

The molecule `Cc1[nH]c(C)c(-c2ccc(Oc3ccc(F)cc3)cc2)c(=O)c1Br` came in with an IFI of 3.85%.

As for `Oc1ccc(CCNCCCCCNCCCc2ccc(Cl)cc2)cc1O`, the IFI came out at 6.25%.

Molecule `COc1cc(N(Cc2ccc(F)cc2)C(=O)c2ccc(-c3ccccc3)cc2)ccc1OCCN1CCCC1` returned an IFI of 5.04%.

`CN(C)C(=O)CC(=O)NCc1c(Cl)cccc1Cl`: the IFI is -0%.

`CCOc1ccc2c(=NN=Cc3ccc(OC)c(OC)c3)cc(C)[nH]c2c1` came in with an IFI of 4.29%.
